# Legend:
# Format in all cases: cell-based
# rSERT = target: T1, rSERT (Rattus norvegicus, UniProt P31652); assay: [3H]5-HT uptake inhibition, stable CHO cells
# T1 construct: gene Slc6a4; previously cloned cDNA; no tag mentioned
# mGAT1 = mGAT1 (Mus musculus, UniProt P31648); assay: [3H]GABA uptake inhibition, stable CHO cells; set-up: gene Slc6a1; full-length ORF in pcDNA3; no tag mentioned
# mGAT2 = target: T2, mGAT2 (Mus musculus, UniProt P31649); assay: [3H]GABA uptake inhibition, stable CHO cells; set-up: gene Slc6a13; RIKEN FANTOM cDNA in pcDNA3; no tag mentioned
# T2 sequence (P31649 1-602): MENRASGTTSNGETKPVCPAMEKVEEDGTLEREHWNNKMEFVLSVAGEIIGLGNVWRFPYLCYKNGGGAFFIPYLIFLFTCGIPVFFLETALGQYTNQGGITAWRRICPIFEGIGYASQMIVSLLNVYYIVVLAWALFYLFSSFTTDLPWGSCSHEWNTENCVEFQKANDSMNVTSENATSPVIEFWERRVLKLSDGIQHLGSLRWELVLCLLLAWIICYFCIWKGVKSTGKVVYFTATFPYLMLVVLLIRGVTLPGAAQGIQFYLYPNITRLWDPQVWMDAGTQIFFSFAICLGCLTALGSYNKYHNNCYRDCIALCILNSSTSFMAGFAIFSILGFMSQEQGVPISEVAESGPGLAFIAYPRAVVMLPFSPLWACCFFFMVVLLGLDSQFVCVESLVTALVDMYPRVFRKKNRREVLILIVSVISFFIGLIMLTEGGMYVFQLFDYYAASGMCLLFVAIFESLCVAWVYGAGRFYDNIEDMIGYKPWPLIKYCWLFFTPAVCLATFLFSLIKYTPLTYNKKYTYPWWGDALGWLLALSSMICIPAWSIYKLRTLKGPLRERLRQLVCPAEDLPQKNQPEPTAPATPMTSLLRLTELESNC
# mGAT3 = target: T3, mGAT3 (Mus musculus, UniProt P31650); assay: [3H]GABA uptake inhibition, stable CHO cells; set-up: gene Slc6a11; RIKEN FANTOM cDNA in pcDNA3; no tag mentioned
# T3 sequence (P31650 1-627): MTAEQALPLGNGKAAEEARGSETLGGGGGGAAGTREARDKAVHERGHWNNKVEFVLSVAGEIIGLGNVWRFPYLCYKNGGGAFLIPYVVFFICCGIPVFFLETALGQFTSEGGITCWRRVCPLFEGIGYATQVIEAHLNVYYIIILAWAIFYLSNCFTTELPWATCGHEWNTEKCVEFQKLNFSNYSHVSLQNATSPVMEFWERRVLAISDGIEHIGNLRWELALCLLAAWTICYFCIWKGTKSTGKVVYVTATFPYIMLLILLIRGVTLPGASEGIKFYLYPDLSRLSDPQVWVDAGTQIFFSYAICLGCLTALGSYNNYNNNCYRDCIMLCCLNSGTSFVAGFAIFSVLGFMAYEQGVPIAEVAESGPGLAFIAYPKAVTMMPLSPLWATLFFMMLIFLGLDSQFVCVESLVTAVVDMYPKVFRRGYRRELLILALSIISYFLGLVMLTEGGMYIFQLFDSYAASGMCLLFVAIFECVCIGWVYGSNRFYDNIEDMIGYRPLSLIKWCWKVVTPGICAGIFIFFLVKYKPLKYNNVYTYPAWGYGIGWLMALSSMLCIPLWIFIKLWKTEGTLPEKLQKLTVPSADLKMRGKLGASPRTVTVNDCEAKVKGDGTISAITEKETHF
# T1 sequence (P31652 whole entry): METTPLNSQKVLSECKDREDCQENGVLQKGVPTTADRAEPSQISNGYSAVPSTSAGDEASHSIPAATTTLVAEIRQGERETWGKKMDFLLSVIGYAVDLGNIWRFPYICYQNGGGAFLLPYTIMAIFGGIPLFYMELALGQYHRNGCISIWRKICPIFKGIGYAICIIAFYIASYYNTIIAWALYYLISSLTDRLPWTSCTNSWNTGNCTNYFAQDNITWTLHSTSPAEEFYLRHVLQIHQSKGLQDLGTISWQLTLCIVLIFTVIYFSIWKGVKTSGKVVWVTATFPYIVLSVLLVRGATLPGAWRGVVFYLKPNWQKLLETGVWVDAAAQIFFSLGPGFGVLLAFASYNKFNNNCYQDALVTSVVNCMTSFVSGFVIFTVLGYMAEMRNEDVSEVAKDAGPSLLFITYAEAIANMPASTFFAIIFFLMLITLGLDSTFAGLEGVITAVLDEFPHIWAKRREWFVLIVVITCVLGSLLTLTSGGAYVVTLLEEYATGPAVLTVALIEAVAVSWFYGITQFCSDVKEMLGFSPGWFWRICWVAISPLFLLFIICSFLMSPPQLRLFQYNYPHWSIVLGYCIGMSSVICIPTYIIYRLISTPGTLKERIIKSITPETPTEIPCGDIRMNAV
SMILES,IC50 (rSERT),IC50 (mGAT1),IC50 (mGAT2),IC50 (mGAT3)
CN(C)CCC=C1c2ccccc2COc2ccccc21 [Doxepine],–,222 ± 14.7 µM,129 µM,115 µM
CNCCCC12CCC(c3ccccc31)c1ccccc12 [Maprotilline],–,124 ± 8.4 µM,98 µM,106 µM
CN1CCN2c3ccccc3Cc3ccccc3C2C1 (stereo not shown) [Mianserine],–,222 ± 9.9 µM,131 µM,91 µM

# Continued by falling IC50 (mGAT1), values first:
IC50 (rSERT),IC50 (mGAT1),IC50 (mGAT2),IC50 (mGAT3),SMILES
1.62 µM,288 ± 80.5 µM,135 µM,195 µM,Clc1ccc2c(c1)C(N1CCNCC1)=Nc1ccccc1O2 [Amoxapine]
–,93.3 ± 39.8 µM,41.8 µM,40.2 µM,CN(C)CCCN1c2ccccc2CCc2ccc(Cl)cc21 [Clomipramine]

# — article PMC3317675 (International Journal of Molecular Sciences, 2012)
